Data reported in PubChem BioAssay AID1347073 (National Center for Advancing Translational Sciences (NCATS), 2019).
Hit rate of the full screen: of about 45,000 compounds, about 200 (0.44%) were called active. Not shown: some 7% with an inconclusive outcome. The call rests on the fitted dose curve; in most records, active means well fitted activation curve with a large enough effect; inconclusive means small, poorly fitted or top-dose-only effect; inactive means no such curve, though single readings can be large or run the other way. The list shows a part of the results.

Experiment: qHTS of TDP-43 Inhibitors: NCGC Sytravon Library Screen; further: 0% is about no effect; nearly all actives have a fitted effect of over 55% in size
Conditions: yeast TDP-43 toxicity rescue, BacTiter-Glo growth, 24 h; series mostly up to 46.1 µM; growth rescue (activation): at the top concentration
How it was run: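 TDP-43-expressing yeast, pregrown in raffinose, seeded at OD600 0.02 in galactose medium with compound for 24 hr at 30 deg C. Growth read by BacTiter-Glo luminescence, so rescue of toxicity appears as activation.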

Structure (SMILES) | growth rescue (activation)
Cc1ccc(S(=O)(=O)N(C)CC(=O)NCC(=O)Nc2ccc(F)c(F)c2F)cc1 | inactive: -5.9%
COc1ccc(N(C)C(=O)C2CCN(S(=O)(=O)c3cccc4nonc34)CC2)cc1 | inactive: -4.07%
CC1(Oc2cccc(F)c2)CCN(Cc2ccc(-c3ccccc3)o2)C1 (stereo not drawn) | inactive: 5.98%
Cc1ccc(OCC(=O)N(Cc2ccccc2)C(C)C)c([N+](=O)[O-])n1 | inactive: 20%
CS/C(=N\S(=O)(=O)c1cccs1)Nc1ccc(Cl)cc1 | inactive: 1.71%
O=C(C(Cl)c1ccccc1)N1CCOCC1 (stereo not drawn) | inactive: 0.412%
O=C(Nc1ccccc1OC(F)F)C1CCCN1C(=O)c1cccs1 (stereo not drawn) | inactive: 2.77%
CCCc1nc2ccccc2c(C(=O)OCC(=O)Nc2c(C)n(C)n(-c3ccccc3)c2=O)c1CC | inactive: -14%
O=c1cc(O)c(-c2ccc(Cl)c(Cl)c2)c(Cl)[nH]1 | inactive: -3.15%
Cc1csc(NC(=O)NCC2CCCC(CNC(=O)Nc3nc(C)cs3)C2)n1 (stereo not drawn) | inactive: 9.71%
CNc1nc2[nH]c(=O)c3c(c2s1)OC(N)=C(C#N)C3c1ccccc1 (stereo not drawn) | inactive: 8.87%
CCOC(=O)C1(Cc2ccc(OC)cc2)CCN(C(=O)c2cc3ccccc3[nH]2)CC1 | inactive: 28%
Cc1cccc(NC(=O)c2ccc3c(c2)OCCO3)c1 | inactive: 4.68%
CON(C)S(=O)(=O)c1cccc(C(=O)NC2CCSc3ccccc32)c1 (stereo not drawn) | inactive: 12.1%
COc1ccccc1C(=O)Nc1ccc(Oc2nnc(-c3ccc(C)cc3)c3ccccc23)cc1 | inactive: -2.76%
CC(C)(C)NC(=O)c1cc([N+](=O)[O-])ccc1N1CCCCC1 | inactive: 19.6%
O=C(CC12CC3CC(CC(C3)C1)C2)NC(Cc1ccccc1)C(=O)O (stereo not drawn) | inactive: -0.273%
CCCC(=O)Nc1ccc2c(c1)nc(CCN1CCN(c3ccccn3)CC1)n2C | inactive: -8.61%
COc1ccc2oc(=O)c(C(=O)C[n+]3cccc(C)c3)cc2c1 | inactive: -8.33%
O=C(CSc1ncnc2[nH]ncc12)Nc1nc(-c2ccc(F)c(F)c2)cs1 | inactive: 1.94%
COc1ccc(S(=O)(=O)N2CCCCCC2)cc1NC(=O)Cc1ccc(OC)c(OC)c1 | inactive: 21.6%
O=C(NCc1ccc(Cl)c(Cl)c1)c1cc(C2CCCCN2C(=O)CCc2ccccc2)on1 (stereo not drawn) | inactive: 17.3%
Cc1c(Cl)cccc1NC(=O)CC1SC(=NCC2CCCO2)NC1=O (stereo not drawn) | inactive: 8.85%
CCOC(=O)C1=C(CS(=O)(=O)c2ccc(C)c(C)c2)NC(=O)NC1c1ccc(O)cc1 (stereo not drawn) | inactive: 6.23%
CC(=O)c1cccc(NC(=O)/C(=C\c2cccnc2)NC(=O)c2ccc(C)cc2)c1 | inactive: 12.7%
Cn1c(SCC(=O)Nc2ccc(C(=O)O)cc2)nc2scc(-c3ccccc3Cl)c2c1=O | inactive: 19.1%
C=C(C)c1cccc(C(C)(C)NC(=O)Nc2nncs2)c1 | inactive: -4.55%

Structure (SMILES) | growth rescue (activation)
C/C(CC(=O)Nc1ccc2c(c1)OCCO2)=N\NC(=O)Cc1ccccc1 | inactive: -4.6%
Cc1ccc(NC(=O)C2CC2c2ccccc2)c([N+](=O)[O-])c1 (stereo not drawn) | inactive: 25.8%
COc1ccc(OC)c(NC(=O)c2nc(-c3ccccc3)oc2C)c1 | inactive: 3%
CC(Sc1ccccc1)C(=O)NN=C1CCCCCC1 (stereo not drawn) | inactive: 10.4%
COc1cc(COC(=O)c2cnc(C)cn2)c(OC)cc1Br | inactive: 11.4%
O=S(=O)(c1ccc2nc(SCc3ccc(Cl)cc3)[nH]c2c1)N1CCOCC1 | inactive: 20.1%
O=c1[nH]c(NNC(=S)NC2CCCCC2)nc2c1C1(CCCC1)Cc1ccccc1-2 | inactive: 14.8%
OCCN1CCN(c2nc(-c3ccccc3O)nc3ccccc23)CC1 | inactive: -19.1%
CCN(CC)S(=O)(=O)c1cccc(C(=O)N/N=C(\C)c2cccs2)c1 | inactive: -4.44%
O=C(NCCCN1CCOCC1)c1cc(-c2ccco2)nc2ccccc12 | inactive: 3.16%
CC(=O)c1cccc(NC(=O)C(OC(=O)c2cccs2)c2ccccc2)c1 (stereo not drawn) | inactive: -1.71%
CC12COC3(P(=O)(c4ccccc4)c4ccccc4)CC1CCC23CP(=O)(c1ccccc1)c1ccccc1 (stereo not drawn) | inactive: -20.3%
N#CCCN(C(=O)c1ccco1)c1ccccc1 | inactive: 10.6%
Cc1cccc(NC(=S)N2CCN(c3cc(C)ccc3C)CC2)c1 | inactive: 21.4%
CCCSc1nc2sc3c(c2c(=O)n1-c1ccc(OC)cc1)CCN(C)C3 | inactive: -19.5%
CCC(C)(C)C1CCc2c(sc(NC(=O)c3ccoc3C)c2C(N)=O)C1 (stereo not drawn) | inactive: 21.2%
Cc1ccc2nc(COC(=O)CNC(=O)c3ccccc3)cn2c1 | inactive: 22.4%
OCCNCc1c(OCc2ccc(Cl)cc2)ccc2ccccc12 | inactive: -13.7%
Cc1ccccc1CN1CCN(C(=O)c2cc(-c3ccncc3)nc3ccccc23)CC1 | inactive: 6.43%
O=C1CCCN1CCC1CCCCN1Cc1nc(COc2ccccc2)no1 (stereo not drawn) | inactive: 2.89%
COC(=O)c1ccc(C(=O)OC)c(NC(=O)C2CC(=O)N(C3CCCC3)C2)c1 (stereo not drawn) | inactive: 4.78%
NC(=O)c1cc(Cl)ccc1OCC(=O)NC1CC1 | inactive: 1.58%
O=S(=O)(Nc1ccc(Cl)cn1)c1cnc(Cl)c(Br)c1 | inactive: 0.261%
COc1cccc(-c2cnc3c(NC=O)cc(-c4cc(OC)c(OC)c(OC)c4)cn23)c1 | inactive: 21.7%
O=C(O)C(F)(F)C(NCc1ccccc1)c1ccccc1 (stereo not drawn) | inactive: -7.2%
Cc1cc(Cl)ccc1C(O)c1ncc(-c2ccc(F)cc2)[nH]1 (stereo not drawn) | inactive: -1.38%
